Source: patent US12551573B2, “Compositions and methods for the targeting of PCSK9” (Scribe Therapeutics Inc., priority 2022, dated 2026)
Read-outs that look alike come from different tables or passages of the source.

Tested on: HBEGF locus
Assay type: cell-based, human
Conditions: high-throughput screen of dXR repression of the HBEGF gene
[1] = abundance of each domain in the library before and after diphtheria toxin selection, HEK293T cells
[2] = change in abundance of each domain in the library before and after diphtheria toxin selection

Molecule | Log2 (fold change) [1] | Log2 (fold change) [2]
DOMAIN_14069 (protein, listed as Lynx canadensis) AQKSLTLEDVAVDFSREEWRLLAPAQKDLYRDVMLENYRNLVSVGHQASKPDVLAKLERGEEPWAIEEEVRSGTSPETGKV | 2.9182 | 
DOMAIN_14083 (protein, Phyllostomus discolor) YKESVMFRDVAVDFSQEEWECLDPAQRDLYRDVMLENYSNLLSMGLYIPKPQVISLLEQGKEPWMVGRELTRGLCSDLESM | 2.7465 | 
DOMAIN_14219 (protein, listed as Ailuropoda melanoleuca) QGLVSFKDVAVDFTQEEWQQLDPAQRTLYRDVMLENFSHLVSIGYAVSKPDVISKLEQGEDPWIIKRDIPNWIYPDENQAD | 2.6653 | 
DOMAIN_14013 (protein, listed as Ailuropoda melanoleuca) MTFEDVAVEFTQWEWGQLDPAQQDLYREVMLENFKNLASLGLPVSKPYVITQLEEGKDPCVLDGEISTEYLSPPPDWEKRP | 2.4619 | 
DOMAIN_14322 (protein, listed as Desmodus rotundus) SVAFRDVIVDFTQEEWQQLKPAQKDLYRDVMMENYWNLVSLDLETRPDKKESDPQEDDWEDRPSIAVVAEGPMRTGDQGCI | 3.3716 | 
DOMAIN_14256 (protein, listed as Lynx canadensis) GKPGALSFADVAVYFSSEEWGCLRPAQRALYRDVMRETYGHLGALGEARPPALISWMERKKEAWSPEAEDPEDRARHPGYG | 2.4946 | 
DOMAIN_14147 (protein, listed as Canis lupus) RPGAVSFADVAVYFSPEEWGCLRPAQRALYRDVMRETYGHLGALGFADAKPVLIAWLERKAEVWTPEAEDPEEGARHPGSG | 3.3683 | 
DOMAIN_21247 (protein, Neovison vison) LVSFEDVAMDFSREEWQQLDPAQRCLYQDVMLEIYSHLLSVEGALGLKTSQQKIFEKASFHNGKESEVTRGGMWCSISEDL |  | 2.741
DOMAIN_14226 (protein, listed as Lynx canadensis) SQGLVSFKDVAVDFTQEEWQQLDPAQRTLYRDVMLENFSHVISLGYPVSKPDVISKLEQGEDPWIIKRDVSNWIYTDENQA | 3.1176 | 
DOMAIN_14108 (protein, listed as Canis lupus) SLESDLFRDVAVVFSQEEWEQLVPTQRDLYRDVMLETYNNLVSLGLAISKPDVISFLEQGKEPWMVEKAATGGLCPVLESR | 3.0621 | 
DOMAIN_14197 (protein, Muntiacus muntjak) QAGSDLFRDVAVVFSQEEWEQLAPTQRDLYRDVMLETYSNLVSLGLAVSKPDVISFLEQGKEPWTVEGVATGGLCPVLKSR | 2.9589 | 
DOMAIN_14153 (protein, Muntiacus muntjak) LQDLVTFKDVTVEFNQEEWALLDSSQQKLYRDVMLENYGNLASLGYHVDKPSLISQLEQEDKVMTEEGGILPGTCPDLETV | 2.883 | 
DOMAIN_21317 (protein, listed as Pteropus vampyrus) EQESVSFKDVTIDFSREEWQQLDFAQKSLYRDVMLENYFNLISVGCQVPKPEVIFNLEQVENSCMLHRKISRQSCLDGDIG |  | 4.0893
DOMAIN_14129 (protein, listed as Lynx canadensis) LQGLLTFRDVAIEFSQDEWGCLNQSQRELYRDVMLETYGHLLFLGLIVSKPHLVIFLEQKRELWDVKRKKTVRTQKGENTS | 2.8195 | 
DOMAIN_14382 (protein, listed as Phascolarctos cinereus) SQESVTFQDVAVDFTREEWKRLDSAQRDLYRDVMLENYQNLVSLGLLVFQSDVISQLENGEVPLVPGGEVPRGTRPGSVNQ | 4.0523 | 
DOMAIN_14365 (protein, listed as Desmodus rotundus) SVTFRDVIVDFTQEEWEQLKPVQKDLYRDVMMENYWNLVSLDLETEGDMNDPDPEKDSWEDRPSVTSSMPAPPRLEGPRGA | 3.0706 | 
DOMAIN_14358 (protein, listed as Lynx canadensis) GPWTLLTFRDVAIEFSQEEWGCLNHSQRELYRDVMLETYGHLLFLGLVSKPDLVILLEQKKELWGVKRKETVGCQFEGHVT | 2.7094 | 
DOMAIN_14041 (protein, listed as Phascolarctos cinereus) QDLVTFKDVSVDFTREEWMRLDHPQRALYRDVMLENYRNLVLVSLGHPISKPDVISRLEQGGVPWVLKKGATGRAFSDRET | 2.9069 | 
DOMAIN_19949 (protein, listed as Callorhinus ursinus) AEGHVTFEDVAVYFSWEEWGLLDEAQRLLYRDVMLENLALMASLGLASSRTHEITQLEWWREPFLPPCGVVTAAMPRGWRR |  | 3.2903
DOMAIN_14031 (protein, Phyllostomus discolor) IGSDLFRDVAVVFSREEWEQLTPAQRDLYRDVMLEIYSILLSLGPDLAVSKPDVISFLEQGKEPWRVEEAVTGGLCPVLES | 3.0963 | 
DOMAIN_14228 (protein, listed as Lynx canadensis) AQGLVTFRDVAIEFSQEEWKCLEPAQRNLYRDVTLENFSNLVSLGLSISKPDLISLLEQGREPWMIANDMTGPWCPELESR | 3.3445 | 
DOMAIN_14337 (protein, Muntiacus muntjak) QPDLVTFGDVAVDFSQEEWEWLNPAQRSLYRTVMLDNYRSLVSLGVSASKPDVISLLEQGKEPWLVKEEGPRGARPDSSPT | 3.2753 | 
DOMAIN_14135 (protein, listed as Bos mutus) LQVSVSFEDVTVDFSREEWQHLDSAQRRLYQDVMLENYSHLLSLGYEVPKPEVIFKLEQGEEPWALKEKTLHHSCSDDTTL | 2.426 | 
DOMAIN_14295 (protein, Muntiacus muntjak) RKRGSLTLEDVAVDFTWEEWQLLAPAQKALYRDVMLENYGNLVFVGYQASKPAALSRLERGEPWPVEDEVHSQLCPEMRKD | 3.4018 | 
DOMAIN_14040 (protein, listed as Phascolarctos cinereus) ARGPVSFADVAVYFSPEEWGRLRPAQRALYRDVMRETYGHLGALGFPGPKPALMCWMDEETEVWGPDARDPEEAGEKGTEN | 3.0933 | 
DOMAIN_14338 (protein, listed as Ailuropoda melanoleuca) QEPVTFEDVAVYFTQNQWAKLDPTQRALYREVMLENYANVASLVAFPFPKPDLVSQLERGEVPWGPDPWEAEVLRGICPGG | 3.1071 | 
DOMAIN_14049 (protein, listed as Phascolarctos cinereus) PQESVTFKDVAVDFTWEEWGYLDTSQKELYWEVMLENYRNLVSLGLADSNVDMISQLESGEAQGIPVDSVLTSCWPDGDRR | 2.7761 | 
